Source: the supplement of paper PMC3334620
The full ranking holds about 33,000 sequences; the median of “E-score (-0.5 to 0.5)” is about -0.012, and the highest 2% start at about 0.27. Some of the results follow.

target: T1, Vhr1 (UniProt P40522); assay: PBM E-score (8-mer binding enrichment) (E-score (-0.5 to 0.5)); higher = stronger / more preferred TF binding; most listed sequences are background and not binding sites; details: protein concentration: 200 nM; construct: GST-full length
T1 sequence: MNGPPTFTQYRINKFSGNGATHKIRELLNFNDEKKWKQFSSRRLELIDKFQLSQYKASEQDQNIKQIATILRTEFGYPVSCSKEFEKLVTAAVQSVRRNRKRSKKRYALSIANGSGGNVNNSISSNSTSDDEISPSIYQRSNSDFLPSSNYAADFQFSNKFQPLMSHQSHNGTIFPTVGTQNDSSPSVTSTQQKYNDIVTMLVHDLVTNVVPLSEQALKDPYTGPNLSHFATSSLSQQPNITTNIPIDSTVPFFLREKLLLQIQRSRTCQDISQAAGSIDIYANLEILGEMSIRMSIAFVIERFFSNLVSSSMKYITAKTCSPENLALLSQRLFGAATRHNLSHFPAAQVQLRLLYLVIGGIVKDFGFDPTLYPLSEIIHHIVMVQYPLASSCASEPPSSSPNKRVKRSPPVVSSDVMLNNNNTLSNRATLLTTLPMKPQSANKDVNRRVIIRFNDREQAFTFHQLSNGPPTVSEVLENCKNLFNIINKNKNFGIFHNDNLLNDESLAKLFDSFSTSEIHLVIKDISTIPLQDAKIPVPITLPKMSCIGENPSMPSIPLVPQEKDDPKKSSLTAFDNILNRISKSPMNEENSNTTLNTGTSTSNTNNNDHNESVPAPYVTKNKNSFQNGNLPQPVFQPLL
Procedure: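 Universal 'all 10-mer' protein binding microarrays (Agilent AMADID 015681) probed with GST-tagged S. cerevisiae TFs (full-length or DBD) made by in vitro transcription/translation (PURExpress), about 100-200 nM. Bound TF was detected with fluorescent anti-GST. Each ungapped 8-mer (which stands for itself and its reverse complement) is scored by the PBM enrichment score (E-score), a modified Wilcoxon-Mann-Whitney statistic from -0.5 to +0.5, computed with the Universal PBM Analysis Suite. Scale: above 0.35 generally sequence-specific binding.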

Sequence	PBM E-score
CATAGCCG	-0.0116
CAGTTACC	-0.14
GATAAATC	-0.091
ACGGGACT	-0.0602
ATTGTCAA	0.0852
AACTAACC	0.215
ACCTAAGT	0.0395
CGAGAGCC	-0.0736
GAAATGGC	-0.17
AAAAGCGC	-0.137
CGTAGGGC	-0.339
AATTGACA	-0.175
CAGCGGTA	-0.011
CATAGAAG	-0.0987
ACGCCGCA	0.0541
TCCCTCCA	-0.139
AGCCTAGA	-0.291
CAGCCGGA	0.198
AATACTGC	-0.0473
AGCTCGAA	-0.0606
CAATGGCG	-0.104
TCGAGGCA	0.018
GTGCCGCA	-0.118
TCATTCCA	0.0385
TCGAATCA	0.253

Sequence	PBM E-score
GCCCACAA	-0.022
ACGGCACC	-0.293
ACTCCTTA	-0.0469
CATTCCTA	0.0131
AAGTATAA	0.00367
AAATCCGC	-0.148
CGGCACAA	-0.0308
AGATGTTC	-0.219
ACAATTCG	0.0415
GACCCACA	0.284
ATACGAAA	0.101
CCGCCCGA	0.161
AGACCCTA	-0.0568
CAAGCCAC	-0.127
AAGTCTTC	-0.151
AAATACGC	-0.0213
ATTCAGCG	-0.0101
CGCTGCAC	0.106
GCCGTAAC	-0.0732
CTGTTAAA	-0.214
AAATCGAG	-0.0638
ACCAGGGG	0.0276
ACTAATAC	0.192
CCATGTAC	0.0619
CGGCCTTC	-0.128

Sequence	PBM E-score
GGTTTGTA	0.016
GTGCGTAA	-0.0387
ACAAGAGC	-0.0338
CAGACAGC	-0.163
ATGTATTG	0.241
AATTCCTG	-0.306
CTTCGCAC	-0.127
TGGAACAA	-0.0669
AATGCGCA	0.0444
AGTTACGG	0.0674
GTCTCATA	0.0749
CATTTTTC	-0.132
TCACCACA	0.236
ATTACAAA	0.0693
CAGGTATC	-0.0492
AACAATAC	0.0279
GCCTCAGA	0.138
CAACCCCG	-0.041
CGAACTCC	0.00855
AACCCAGC	0.162
GCCTATAA	-0.118
GCGGACAC	0.0247
TACCGATA	-0.0891
AGGGTTGG	-0.0946
CAATTTTA	-0.0392

Sequence	PBM E-score
AATTGTCT	-0.00025
ATGCAACA	0.0546
CACAGTCG	0.0927
AACCAGGG	0.0884
TATATCCA	0.0413
GTAGGAAA	-0.0392
GCTCCGTA	-0.0643
ATATATAC	0.285
CATTCAAA	0.00057
AGCTCCCG	-0.194
AAAGCTGG	-0.13
GTGTCAAC	-0.00154
AGAATTTG	-0.17
ACGCGAAG	0.0207
AAACACGG	-0.0903
AGAGGGGG	-0.218
ACATGGCA	0.11
ACATTGTG	0.0853
CAACCCGA	0.034
AAACTACC	-0.0427
ATTAATTA	0.0406
AGGAGTGA	0.00535
ACGTGGCC	-0.297
CGTTTCGA	-0.103
AAGATGCT	-0.159

Sequence	PBM E-score
GCGACAGC	-0.189
AAGAATGA	0.0188
CCCGTCCG	-0.167
CCAATCCA	-0.0361
ACTCCAGC	0.187
ACCGTCAT	0.0674
ACCACTAG	-0.101
CCTCGACG	-0.241
CGGCCCAG	-0.102
CAGGGGTA	-0.129
CGCTAGCG	-0.263
AACCTTGT	-0.0788
TCTTCCCA	-0.168
CAAGCACG	0.029
AACCCCAT	0.0589
GACTCCCC	0.223
GCGGCGTA	0.101
AACCCCAC	0.0262
AGAAGGTA	0.0148
AGTTGAGC	-0.105
CTGGCGAA	0.0736
CCACAGGG	-0.12
AAGTCGAG	-0.158
AAAATGCT	0.00247
ATCAGTGA	-0.0469

Sequence	PBM E-score
GGAGTTAA	0.022
CGATGTCC	0.0618
CGTGGTCC	0.0707
CCTATGAC	0.0237
CGAGGCAG	-0.118
ATTTCAAC	-0.18
TCATGCGA	0.285
AAGTTGGG	-0.0448
CTCCGAGA	0.0305
TACCTCTA	-0.134
ACGACGGA	0.0348
CAGGGAGA	0.021
GGAAACTA	-0.00502
ATTTCGCG	0.069
AACTCTGC	0.0334
GTTCATTA	-0.0167
GTTTAGAA	-0.121
CAGTCTTA	-0.00565
GGCCCGCC	-0.0605
GAAAATAA	-0.25
CATTGCTC	0.0833
ACCAGGTG	-0.00153
GAGACCCA	0.0811
AACTAAGC	-0.0419
GAAAACTC	-0.187

Sequence	PBM E-score
ATTCGTTC	-0.0156
ATCTGAGC	-0.0187
CTGAGATC	-0.142
AGAAGGAC	-0.213
AGGATCGG	-0.0744
AGACCCGC	0.121
GATCAGCA	0.0116
TAAATCAA	-0.0533
AGACCCCA	0.0804
ACCGGAGG	-0.128
ATGAGACG	0.00085
TGAGCCCA	0.13
ACAGAGGA	0.026
ACGGATCG	0.0223
CATATTGG	0.132
CGATAGAA	-0.164
CTTGGCGC	0.0312
GAAATCAA	-0.199
CAGTTCGC	-0.00078
AATAAAGC	-0.176
CACTGTAA	0.123
CTGACACA	0.253
ATGTTCAG	-0.102
ATAAGAAG	-0.11
ACAAGAGT	0.108

Sequence	PBM E-score
GAGGGGGC	-0.155
ATACGCCC	-0.103
CATTACTA	0.107
AGGTTCTA	-0.0802
ATCCACGA	0.129
CAAGCAGC	-0.0665
ACGGTCTA	-0.163
ACGTATTG	-0.0593
GCACGGAC	-0.112
TGCTTACA	0.0554
CGCGTCTA	-0.0285
AGCAACAG	-0.0889
GCTCCGGA	0.0316
ATACATCC	0.191
CAATTTCC	-0.195
GATGCAGC	-0.101
CAACTAGG	0.0954
AGCGCTGG	0.0676
AGGCCGAT	-0.117
AACTTCCA	-0.112
AATCCATT	0.113
CGGGAGCA	-0.121
CACTTTGC	-0.0419
GGTGCAGA	-0.206
ATGAACCC	0.225

Sequence	PBM E-score
TATGTCCA	-0.0889
GCAGCAAC	0.126
AAGCTAAC	0.0321
ATATTGAG	0.106
CTCCCTGA	0.109
CACCAAAG	-0.0664
CTACCTGA	-0.00401
CCGTCTTC	0.0464
AATTGCCT	-0.131
AGACCCAT	0.157
ACGGAGAA	-0.0931
AAATAGTC	0.0418
GAGAAGGC	-0.24
CGAGGTGA	0.107
CCATGGGG	0.0665
CACTCCCC	0.0503
GGAATCTA	-0.0388
CACTCTGG	0.0343
AGCCAATA	-0.156
